# Laboratory results as given in the supplement of paper PMC11417369.
# This is one part of the list.
# Test system: PfAP2-HC AP2 domain (GST-tagged)
# Test: gcPBM binding intensity (ln(normalized median fluorescence intensity)); higher = stronger DNA binding
# Procedure, shortened: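 GST-tagged P. falciparum DNA-binding domains, expressed in E. coli (about 25 μg on average), were applied for 1 h to an Agilent 4 × 180k array of primer-extended double-stranded 36-bp intergenic genomic probes plus negative controls. The binding buffer was 1× PBS with 1% milk, 0.2 mg/ml BSA, 0.5% salmon testes DNA and 0.03% Triton X-100. Bound protein was detected with Alexa488 anti-GST antibody and scanned at 488 nm. Binding intensity is the highest Masliner-normalised natural-log median intensity across replicate spots of either probe orientation.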
row,Sequence,gcPBM binding intensity (ln)
1,AATATAAAAATGCACACACACAAAAAAAAAAAAAAA [CACACA_site6546],10.9
2,TTTAAAATATTGTATTGTACGCAATAAAAAATACCA [XGTACX_site182],9.65
3,ATAAGCATCTTTTGTGTGCACATAACAAAAAAAAAA,9.85
4,ATTAAATAAAATCATGCACACAATATATATTTTAAG [CACACA_site2495],9.71
5,TCTAACATATCTTTAATACACACTTAAAAAAGTACT [CACACA_site652],9.44
6,ATTTATCTATATATATGTACATATTATTTTTGTGGT [XGTACX_site7390],9.98
7,GATATACAATTTAAGTGTACTATAATAAAATATATA [XGTACX_site3013],9.6
8,ATAAAAAAATATAAATGTACATATATATATATATAT [XGTACX_site5620],9.82
9,TATATTAATTCGTTTTGTACACACATAATGAATAAT [XGTACX_site4618],9.78
10,TGAGAAAGCGCATATTGTACTATATATTTTAACCAC [XGTACX_site4098],9.69
11,AATCCATTCTATTTTTTACACACGTATGTAAATATT [CACACA_site8860],9.99
12,AATATATATGGACATGCATGGACATAATAATCTATT [TGCATGCA_site838],9.79
13,GAAAATAATGTTACATGTACGAATATGTAACTATTG [XGTACX_site6833],9.57
14,AAATACATATATACATGTACATAAATATATATATAT [XGTACX_site5367],9.72
15,ATAGATATACATATCACACATATATATATATATATA [CACACA_site4985],9.59
16,TAAGGTAGTTCTGTATCACACACATATATATATATA [CACACA_site8693],10.2
17,TTTGTAATAACATATGCATGTTCAAAAAATAAAATA [TGCATGCA_site817],9.56
18,ATTTTTTTATAAAATTTTTTATATATTAAATATTAT [CACACA_negctrl_site135],9.42
19,ACGTTTTATTTTTATTGTACTCACATTGAAATGAAT [XGTACX_site6094],10
20,ATATATTTATACATTTGTACATATACATATTTCTGA [XGTACX_site3982],9.64
21,ATTTTTTTTGTAAAAGTGCATATATATATATATATA,9.53
22,AAAATTGTGCTTTCACGGACACAAGATCGAAATAGA [XGTACX_site4068],9.73

row,Sequence,gcPBM binding intensity (ln)
1,ATATAAATATAAACATGTACATATATATATATATAT [XGTACX_site2824],9.7
2,GAAACGTTTTTGAGTAGTACACACACAATAAGGATG [XGTACX_site6809],10.2
3,AAATTTATATAAAACAGTACAATTAAAAAAAAAATA [XGTACX_site8015],9.68
4,ATATATATATATGTGTGTACTTATTTATTTATTTGT [XGTACX_site549],9.94
5,TTTTCTTAATATTTATGTATATATATAATATGATAT [TGCATGCA_negctrl_site572],9.61
6,TAATAAATCCTATATAGTACATATATGCAAGTATGT [XGTACX_site3955],9.68
7,ATGTAACACATATTTGGTACAGATAGATAAAAGTAT [XGTACX_site8291],9.87
8,TTTTTAAATAACCTATATATTATTATGAAACATAAA [CACACA_negctrl_site916],9.22
9,GTATAATATATTTATAGTACATAATTATTTATAAAT [XGTACX_site1826],9.67
10,TATATATATATATTCACACATAAAAATAAAATAAAA [CACACA_site4774],9.74
11,ATATTATGTGATTGTGCACACTGGAGATTTTTTTTA [CACACA_site1453],10
12,CCCGTAAATACAAAAAGTACAAAAGTTCATCTTATA [XGTACX_site1154],9.5
13,CAATATTATTATATTTGTACACATGCGTATTTTTTA [XGTACX_site4154],9.86
14,TTAATATTGTATCCAAGTACACAAATTATTATATTT [XGTACX_site8067],9.61
15,TAATAATAATATAAAATACACACCTATTATTTTTAC [CACACA_site4003],9.77
16,CATGATATATAAATATGTACATATATATATATATAT [XGTACX_site1760],10.3
17,ACATTAATATAAAGCACACATATATATAATATATAT [CACACA_site508],9.74
18,ATTGATTTTTAATATACACACATAAGTACCACAAAA [CACACA_site339],9.87
19,AAAAATATAAACTGCACACACAAAAAAAAAAGAGAA [CACACA_site1367],10.3
20,TATAACATATTTATATATGACATTATCTATTCATTT [CACACA_negctrl_site864],9.61
21,GCCTATATGTTTAGTTGTACTCCTAATATTATTTGT [XGTACX_site6060],9.84
22,CAAATTATTTCGAGGTGTACTTTTTTATATTATATT [XGTACX_site8309],9.79
